Laboratory results taken from PubChem BioAssay AID624418 (National Center for Advancing Translational Sciences (NCATS), 2012).
Out of some 410,000 compounds screened, about 530 (0.13%) were called active. Inconclusive means that the source gave no clear call. Such entries were picked first, then a sample of the others. The call rests on the fitted dose curve; in most records, active means well fitted inhibition curve with a large enough effect; inconclusive means small, poorly fitted or top-dose-only effect, or another doubt; inactive means no such curve, though single readings can be large or run the other way. Where the call is inconclusive, the potency comes from a doubtful curve fit.

Assay: qHTS of GLP-1 Receptor Inverse Agonists: Cytotox Screen
Details: HEK293 cAMP-luciferase reporter cells, luminescence, 24 h; activity change, negative = inhibition: at 38.3 µM (top of the series) unless noted
How it was run: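 Compound-treated cells are incubated 24 hr at 37 deg C under 5% CO2 after a 12 hour attachment period, then luciferase detection reagent is added and luminescence is measured following 12 min at room temperature; lowered signal indicates toxicity.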
On the % scale 0 is the no-effect control and ±100 the full control effect; potency means the concentration at half of the fitted maximal effect.

| SMILES | Potency | activity change, negative = inhibition |
| --- | --- | --- |
| Cc1cnn(CCC(=O)NNC(=S)Nc2ccc(F)cc2)c1 | inconclusive: 10 µM [inhibitor, single point] |  |
| CC1=C(CCN2CCN(C3CCCC3)C(CCO)C2)C(C)(C)CCC1 (stereo not given) | inconclusive: 8.91 µM [inhibitor, partial curve, poor fit] |  |
| Cc1ccc2c(c1)C(c1ccccc1)N(C(=O)c1ccc(S(=O)(=O)N3CCCC3)cc1)CC(=O)N2 (stereo not given) | inactive |  |
| Cc1ccc(SC[C@H](Cc2ccccc2)N2CCN(C)CCC2=O)cc1 | inactive |  |
| O=S(=O)(c1ccccc1)c1nnn2c1nc(N1CCN(c3ccccc3)CC1)c1cc(Cl)ccc12 | inactive |  |
| FC(F)(F)c1ccc(N2CCOCC2)c(Nc2nc3ccccc3n3cnnc23)c1 | inconclusive: 28.2 µM [inhibitor, single point] |  |
| CC(Nc1nc(-c2ccc(F)cc2)cs1)c1nc2cc(Cl)c(Cl)cc2n1CCCO (stereo not given) | inconclusive: 28.2 µM [inhibitor, single point] |  |
| COc1ccc(CN2CCC(N(CCc3ccccc3)Cc3ccccc3)CC2)c(OC)c1 | inconclusive: 15.8 µM [inhibitor, single point] |  |
| O=C(CN1CCC(C(=O)c2ccc3c(c2)OCCO3)CC1)NCc1ccc(F)cc1 | inactive |  |
| CC[C@@H]1[C@H]2CCCC(=O)N3CC[C@@H](C[C@@H]1Nc1ccccc1)[C@@H]23 | inconclusive: 31.6 µM [inhibitor, single point] |  |
| COC(=O)c1cc(CNC(=O)c2ccccc2Cl)ccc1OC | inconclusive: 28.2 µM [inhibitor, single point] |  |
| COc1ccc(-n2cc(CNC3CCOCC3)c(-c3cccc(F)c3)n2)cc1 | inconclusive: 28.2 µM [inhibitor, single point] |  |
| O=C(c1cc(-c2ccco2)nc2ccccc12)N1CCCC(C(F)(F)F)C1 (stereo not given) | inactive |  |
| COc1ccccc1OCc1nnc(-c2ccccc2)o1 | inactive |  |
| O=C(O)c1cccc2c1-c1ccc(Cl)cc1C2 | inactive |  |
| COc1cccc(/C=N/NC(=S)Nc2cccnc2)c1 | inconclusive: 3.16 µM [inhibitor, full curve] |  |
| CN(Cc1ccccc1F)c1cc2c(c3c1ccn3C)C1CCC2C1 (stereo not given) | inactive |  |
| CCOc1ccc(Nc2cc(C)nc3c(C)cccc23)cc1 | inconclusive: 10 µM [inhibitor, partial curve, poor fit] |  |
| Cc1onc(-c2ccccc2Cl)c1C(=O)NC(=S)Nc1ccccc1F | inconclusive: 11.2 µM [inhibitor, single point] |  |
| FC(F)(F)c1cccc(NC(=S)NC2CCCC2)c1 | inconclusive: 28.2 µM [inhibitor, single point] |  |
| Cc1ccc(Nc2nc(CSc3nnc(-c4ccncc4)n3-c3ccccc3C)cs2)cc1 | inconclusive: 22.4 µM [inhibitor, single point] |  |
| O=c1cc(CN2CCN(c3ccccc3F)CC2)c2c(ccc3ccccc32)o1 | inactive |  |
| O=C(Cc1ccc(Cl)cc1)Oc1cccc2cccnc12 | active: 2.51 µM |  |
| Cc1ccccc1-n1c(SCC(=O)c2cc(C)n(C)c2C)nnc1-c1cccnc1 | inconclusive: 11.2 µM [inhibitor, single point] |  |

| SMILES | Potency | activity change, negative = inhibition |
| --- | --- | --- |
| CCCc1sc(N/N=C/c2ccccn2)nc1-c1ccc(F)cc1 | inconclusive: 12.6 µM [inhibitor, partial curve, poor fit] |  |
| CCCN1CCN(CCCNC(=O)c2cc3c(=O)[nH]c4ccc(C)cc4c3s2)CC1 | inconclusive: 28.2 µM [inhibitor, single point] |  |
| COc1ccc(C(=O)N2CCC(C(=O)c3ccc(F)cc3)CC2)cc1 | inactive |  |
| CCOC(=O)Cn1c(=O)n(CC2CCCO2)c2nc(-c3ccc(OCC)cc3)nc(C(N)=O)c21 (stereo not given) | inactive |  |
| CC(C)(O)C#Cc1ccc(C(=O)N2CCN(c3ccc([N+](=O)[O-])cc3)CC2)cc1 | inconclusive: 28.2 µM [inhibitor, single point] |  |
| CCOc1ccccc1NC(=O)Cn1c(=O)n(Cc2ccccc2)c(=O)c2c1c1cc(C)ccc1n2C | inactive |  |
| O=c1c2ccccc2nc(-c2cccs2)n1-c1cccc2ccccc12 | inconclusive: 22.4 µM [inhibitor, single point] |  |
| CCOC(=O)COc1ccc(/C=C/[N+](=O)[O-])c(OCC(=O)OCC)c1 | inconclusive: 20 µM [inhibitor, single point] |  |
| COc1ccccc1Nc1c2c(nc3ccc(NC(=O)c4ccc(OC)c(OC)c4)cc13)CCCC2 | inconclusive: 14.1 µM [inhibitor, single point] |  |
| CN1CCC2(CC1)N=C(c1ccc(F)cc1)C(=S)N2C(=O)c1ccc(C(C)(C)C)cc1 | inconclusive: 20 µM [inhibitor, single point] |  |
| O=C(CCS(=O)(=O)c1nc(-c2ccc3c(c2)OCO3)cc(C(F)(F)F)n1)Nc1ccc(F)c(Cl)c1 | inconclusive: 22.4 µM [inhibitor, single point] |  |
| Clc1ccc(-c2nnc(Sc3nc4ccccc4o3)c3ccccc23)cc1 | inactive |  |
| CCn1c(=O)c(C(=O)NCc2ccc(Cl)cc2)c(O)c2ccccc21 | inactive |  |
| CCOC(=O)c1cn(-c2c(Cl)cccc2Cl)c2cc(Cl)c([N+](=O)[O-])cc2c1=O | inconclusive: 7.94 µM [inhibitor, partial curve, poor fit] |  |
| CCOc1cc(CNCCc2ccc(S(N)(=O)=O)cc2)ccc1OCc1ccc(Cl)cc1 | inconclusive: 28.2 µM [inhibitor, single point] |  |
| O=C1CS/C(=N/N=C/c2ccccc2OS(=O)(=O)c2ccccc2)N1 | inconclusive: 5.62 µM [inhibitor, partial curve, poor fit] |  |
| CC1CCCN(C(=O)c2ccc(OC3CCN(CCc4ccccc4)CC3)cc2)C1 (stereo not given) | inconclusive: 28.2 µM [inhibitor, single point] |  |
| Cc1ccccc1-n1nnc2c(=O)oc3ccccc3c21 | inconclusive: 11.2 µM [inhibitor, single point] |  |
| CCN1CCCC(Sc2nc3c([nH]2)c(=S)n(C)c(=O)n3C)C1 (stereo not given) | inconclusive: 4.47 µM [inhibitor, full curve] |  |
| CN(C(=O)CSc1nc2ccc(NC(=O)CCc3ccccc3)cc2s1)c1ccccc1 | inconclusive: 10 µM [inhibitor, single point] |  |
| CCCNC(=O)c1nnsc1S(=O)c1ccc(Cl)cc1 (stereo not given) | inconclusive: 22.4 µM [inhibitor, single point] |  |
| CC(NC(=O)c1cccc(NC(=O)c2nsc3ccccc23)c1)c1ccccc1 (stereo not given) | inactive |  |
| O=C(c1ccc(F)cc1)N1CCOCC1 | inactive |  |
| Cc1ccc(NC(=O)NCC2CCN(Cc3cccc(Cl)c3)CC2)cc1Cl | inconclusive: 10 µM [inhibitor, single point] |  |

| SMILES | Potency | activity change, negative = inhibition |
| --- | --- | --- |
| CC1CC(C)CN(C(=O)CSc2nc(Cc3cccs3)nc3ccccc23)C1 (stereo not given) | inconclusive: 25.1 µM [inhibitor, single point] |  |
| CCCn1nnnc1NC(=O)COc1ccc(CC)cc1 | inconclusive: 20 µM [inhibitor, single point] |  |
| CC(O)/C=C/c1ccc2ccccc2n1 (stereo not given) | inconclusive: 14.1 µM [inhibitor, single point] |  |
| O=C(Nc1ccncc1)C1COc2ccccc2O1 (stereo not given) | inactive |  |
| O=C(O)c1cc(O)c2c(c1)C(=O)c1cccc(O)c1C2=O | inconclusive: 28.2 µM [inhibitor, single point] |  |
| O=C1C=CC(=O)N1c1ccc(OC(F)F)cc1 | inconclusive: 28.2 µM [inhibitor, single point] |  |
| Cc1ccc(OCCNC(=O)c2ccc(COc3ccccc3)o2)cc1 | inactive |  |
| COc1ccc(-c2nc(-c3ccc(NC(=O)c4ccncc4)cc3)no2)cc1OC | inconclusive: 3.55 µM [inhibitor, full curve] |  |
| CC(C)CC(=O)NC(=S)Nc1cccc(NC(=O)c2ccccc2)c1 | inconclusive: 12.6 µM [inhibitor, partial curve, poor fit] |  |
| O=C(CN1CCN(S(=O)(=O)c2ccc(Br)cc2)CC1)N/N=C/c1ccc(Br)s1 | inconclusive: 3.55 µM [inhibitor, full curve, poor fit] |  |
| Cc1noc(C)c1COC(=O)c1cc(F)c(F)cc1Cl | inactive |  |
| Cc1cccc(NC(=O)CN2C(=O)CC(c3ccccc3)Sc3ccccc32)c1 (stereo not given) | inactive |  |
| CC(C)C(=O)Nc1cccc(NC(=S)NC(=O)c2ccc(Cl)cc2)c1 | inconclusive: 12.6 µM [inhibitor, single point] |  |
| CC(C)c1nc2oc3c(=O)[nH]cnc3c2c2c1CCC2 | inactive |  |
| O=C(NCc1cccc(Cl)c1)c1ccc2c(Cl)c3c(nc2c1)CCCC3 | inactive |  |
| CCCCCCCCN1C(=O)[C@H](CC(=O)NCCc2ccccc2OC)C[C@@]2(C(=O)OCC)CCC=C12 | inactive |  |
| Nc1ccccc1C(=O)NNC1=C(C(=O)C(F)(F)F)CCC1 | inconclusive: 5.62 µM [inhibitor, full curve] |  |
| CC(C)c1ccc2oc(-c3cc(NC(=O)c4cccnc4)ccc3Cl)nc2c1 | inconclusive: 22.4 µM [inhibitor, single point] |  |
| CC1(C)CC(=O)C2=C(C1)c1c(ccc3ccccc13)NC2c1cc([N+](=O)[O-])cc([N+](=O)[O-])c1O (stereo not given) | inconclusive: 20 µM [inhibitor, single point] |  |
| COc1ccc(-n2ncc(C(=O)NCCCN3CCCCC3)c2C2CCN(C(=O)OC(C)(C)C)CC2)cc1 | inactive |  |
| CN(C)NC(=S)Nc1cccc(Cl)c1 | inconclusive: 28.2 µM [inhibitor, single point] |  |
| O=C(NCCSc1ccc(Cl)cc1)c1ccc(CN2CCOCC2)cc1 |  | inactive: -0.889% [at 7.66 µM] |
